From US20210317454A1, “USE OF A TLR9 AGONIST IN METHODS FOR TREATING COVID-19” (priority 2020, published 2021) come the findings set out here.

The series has as its system SARS-CoV2. As to conditions: hypothesized.

Take “tilsotolimod: phosphorothioate oligonucleotide agonist of TLR9, sequence 5LTCG1AACG1TTCG1-X-G1CTTG1CAAG1CT-5′, X glycerol linker, G1 2′-deoxy-7-deazaguanosine (SEQ ID NO. 1) (DNA TCGAACGTTCGGCTTGCAAGCT; phosphorothioate, 7-deazaG, glycerol-linked 3'-3' dimer; (3)..(3) 2′-deoxy-7-deazaguanosine; (7)..(7) 2′-deoxy-7-deazaguanosine; (11)..(12) Linked by is a glycerol linker; (11)..(11) 2′-deoxy-7-deazaguanosine; (12)..(12) 2′-deoxy-7-deazaguanosine; (16)..(16) 2′-deoxy-7-deazaguanosine; (20)..(20) 2′-deoxy-7-deazaguanosine)”: the “duration of SARS-CoV2 viral infection” value was “will shorten the duration of the SARS-CoV2 viral infection”.
